According to PubChem BioAssay AID602332 (National Center for Advancing Translational Sciences (NCATS), 2012):
About 75 (0.02%) of roughly 420,000 compounds were called active. Inconclusive results, whose numbers are uncertain, are shown with a selection of clear calls. Calls follow the shape of the dose curve; as a rule, active = well fitted activation curve with a large enough effect; inconclusive = small, poorly fitted or top-dose-only effect; inactive = no such curve, though single readings can be large or run the other way. Where the call is inconclusive, the potency comes from a doubtful curve fit.

Test: qHTS for Inducers of the Endoplasmic Reticulum Stress Response (ERSR) in Human Glioma: qHTS; also: nearly all actives have a fitted effect of over 35% in size; as to activation: % of control where 0% means no effect
Details: U87-MG GRP78 promoter luciferase reporter, 16 h; activation: active compounds read high
Method in brief: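 ERSR induction read as luciferase luminescence (Bright-Glo, 10 min at room temperature) in stably transfected human U87-MG glioma cells exposed to compounds for 16 h, using GRP78 as sensor.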
Potency is read from the fitted curve at half-maximal effect; tags tell the direction and shape of the fitted curve.

Row | SMILES | Potency | activation
1 | Cc1cc(C)cc(NC(=O)Cn2cc(C(=O)C3CCCCC3)c3ccccc32)c1 | inconclusive: 50.1 µM [activator, single point] | –
2 | COC(=O)CSC1=C(C#N)C(c2ccc(C)cc2)C2=C(CCCC2=O)N1 (configuration not stated) | inconclusive: 44.7 µM [activator, partial curve, poor fit] | –
3 | CCNC(=S)/N=C(\N)Nc1nc(C)c2cc(C)ccc2n1 | inconclusive: 11.2 µM [activator, partial curve, poor fit] | –
4 | O=C(CNS(=O)(=O)c1ccccc1)OCC(=O)c1ccc(F)cc1 | – | inactive: -3.91%
5 | CCOc1ccc(N(C)S(=O)(=O)c2ccc3[nH]cc(C(=O)NCc4ccccc4)c(=O)c3c2)cc1 | – | inactive: -3.06%
6 | Cc1cc(O)ccc1-c1cc(C(=O)NCc2cc(C(F)(F)F)cc(C(F)(F)F)c2)[nH]n1 | inconclusive: 50.1 µM [activator, single point] | –
7 | CCCCC/C=C\CC(O)/C=C/c1cccc(CC(O)CCCCO)n1 (configuration not stated) | inconclusive: 52.1 µM [activator, partial curve, poor fit] | –
8 | CCCCN(C)C(=O)c1cc2cc([N+](=O)[O-])cc(OC)c2oc1=O | inconclusive: 14.1 µM [activator, partial curve, poor fit] | –
9 | Cc1[nH]nc2c1C(c1ccc(-c3ccc(Cl)cc3)o1)C(C#N)=C(N)O2 (configuration not stated) | inconclusive: 44.7 µM [activator, single point] | –
10 | Cc1ccc(C)c(N2CCN(C(=O)C3CCCN(S(=O)(=O)c4c(C)noc4C)C3)CC2)c1 (configuration not stated) | – | inactive: -1.33%
11 | Cn1cnc([N+](=O)[O-])c1Oc1cccc2ccccc12 | inconclusive: 14.1 µM [activator, single point] | –
12 | O=C(CCl)NNc1nc(-c2ccccc2)c2cc(Cl)ccc2n1 | inconclusive: 44.7 µM [activator, partial curve, poor fit] | –
13 | Cc1ccc(C(=O)Nc2ccccc2C(=O)O)cc1S(=O)(=O)Nc1ccc(Br)cc1 | inconclusive: 50.1 µM [activator, single point] | –
14 | COc1ccc(N(C(=O)C(C)C)S(=O)(=O)c2cccs2)cc1 | – | inactive: -5.02%
15 | COc1ccc(CNC(=O)C2=C(C)C(=O)OC23CCC(C)CC3)cc1 (configuration not stated) | – | inactive: -0.73%
16 | CCN(CC)c1ccc(NC(=O)c2c(C)noc2C)cc1 | inconclusive: 2.24 µM [activator, full curve, poor fit] | –
17 | Oc1ccc(/C=C/c2ccc(/C=C/c3ccc(O)cc3)c(Br)c2)cc1 | inconclusive: 18.5 µM [activator, partial curve, poor fit] | –
18 | CCN(CC)CCCn1c(C)cc2c(c1=O)C(c1cccc(Cl)c1)C(C#N)=C(N)O2 (configuration not stated) | inconclusive: 20 µM [activator, single point] | –
19 | CN(C)/C=C(/C(=O)c1ccc(F)cc1)S(=O)(=O)c1ccc(F)cc1 | inconclusive: 35.5 µM [activator, partial curve, poor fit] | –
20 | COc1cc(NC(=O)c2c(F)c(F)c(F)c(F)c2F)c(OC)cc1Cl | inconclusive: 11.2 µM [activator, single point] | –
21 | CN(C)CCNC(=O)c1cccc2nc3c(ccc4ccccc43)nc12 | inconclusive: 44.7 µM [activator, single point] | –

Row | SMILES | Potency | activation
22 | Cc1c(Cl)cccc1Nc1nc(NCCO)c2ccccc2n1 | active: 31.6 µM | –
23 | CCCCN(CC)C(=O)Cc1c(C(=O)O)[nH]c2ccc(Cl)cc12 | inconclusive: 35.5 µM [activator, partial curve, poor fit] | –
24 | Cn1c(NCCO)nc2c1c(=O)n(Cc1cccc(F)c1)c(=O)n2C | inconclusive: 15.8 µM [activator, single point] | –
25 | CC(=O)c1cccc2c(O)c(C3=Nc4ccccc4C3=O)[nH]c12 | inconclusive: 11.2 µM [activator, full curve, poor fit] | –
26 | COc1ccc(Cl)cc1-n1c(=S)sc2c(=O)[nH]c(SCC(=O)NCCC(C)C)nc21 | – | inactive: -0.85%
27 | CCOC(=O)c1ccc(NC(=S)N2CCSC2c2ccc(Br)cc2)cc1 (configuration not stated) | inconclusive: 44.7 µM [activator, partial curve, poor fit] | –
28 | NNC(=O)c1cc2ccccc2[nH]1 | – | inactive: -5.62%
29 | Cc1ccc(/C=N/NC(=S)NC(C)C)o1 | inconclusive: 44.7 µM [activator, partial curve] | –
30 | CCn1c(CNc2ccc(F)cc2)nnc1SCC(=O)N1CCCc2ccccc21 | – | inactive: -2.3%
31 | O=C(/C=C/c1ccccc1O)c1ccco1 | inconclusive: 12.6 µM [activator, single point] | –
32 | CC1CC(NC(=O)CCn2c(=O)oc3ccccc32)CC(C)(C)C1 (configuration not stated) | inconclusive: 63.1 µM [activator, single point] | –
33 | CCN(CC)CCC[C@H](C)Nc1c2ccc(Cl)cc2nc2ccc(OC)cc12 | inconclusive: 50.1 µM [activator, single point] | –
34 | Cc1ccc(C)n1NC(=O)c1ccccc1Cl | – | inactive: -3.05%
35 | COCCNC(=O)/C(C#N)=C/c1cccc(OCc2ccccc2)c1 | inconclusive: 50.1 µM [activator, single point] | –
36 | COc1ccc(/C=N/Nc2ncnc3sc4c(c23)CCCC4)cc1O | inconclusive: 10 µM [activator, partial curve, poor fit] | –
37 | Oc1cccc(/C=N/N=C/c2cccc(O)c2O)c1O | inconclusive: 31.6 µM [activator, partial curve, poor fit] | –
38 | S=c1[nH]nc(COc2ccccc2)n1/N=C/C=C/c1ccco1 | – | inactive: -0.647%
39 | Cc1ccc(S(=O)(=O)NCCc2ccccc2)cc1 | – | inactive: -4.37%
40 | CCOc1ccc(-c2cc(C(=O)NCCCN3CCCC3)c3ccccc3n2)cc1 | inconclusive: 44.7 µM [activator, partial curve, poor fit] | –
41 | COC(=O)[C@@]12CCCN1[C@H](c1ccc(-c3ccc4c(c3)OCO4)c(OC)c1)[C@H]1C(=O)N(C)C(=O)[C@H]12 | – | inactive: -0.224%
42 | CC1=C(C(=O)Nc2ccccc2)C(c2cccnc2)n2ncnc2N1 (configuration not stated) | inconclusive: 22.4 µM [activator, single point] | –
